In all, about 220,000 compounds went through this assay and about 16,000 (7.3%) were called active. This list was built around the results that the source calls inconclusive (neither active nor inactive); the mix of calls is not that of the screen. Calls come from the whole dose curve; as a rule, active = well fitted inhibition curve with a large enough effect (not every such curve was filed as active); inconclusive = small, poorly fitted or top-dose-only effect, or another doubt; inactive = no such curve, though single readings can be large or run the other way. Potencies of inconclusive entries are doubtful fits and often do not repeat.
Each compound was assayed against Aldehyde dehydrogenase 1A1 (Homo sapiens) (UniProt P00352) (assay: qHTS Assay for Inhibitors of Aldehyde Dehydrogenase 1 (ALDH1A1)). Conditions: Purified ALDH1A1, NADH fluorescence, propionaldehyde substrate; series mostly up to 75.3 µM.
Potency is the fitted concentration of half-maximal effect; tags give direction and shape of the fitted curve.

Sequence of UniProt P00352 (P00352 whole entry, looked up): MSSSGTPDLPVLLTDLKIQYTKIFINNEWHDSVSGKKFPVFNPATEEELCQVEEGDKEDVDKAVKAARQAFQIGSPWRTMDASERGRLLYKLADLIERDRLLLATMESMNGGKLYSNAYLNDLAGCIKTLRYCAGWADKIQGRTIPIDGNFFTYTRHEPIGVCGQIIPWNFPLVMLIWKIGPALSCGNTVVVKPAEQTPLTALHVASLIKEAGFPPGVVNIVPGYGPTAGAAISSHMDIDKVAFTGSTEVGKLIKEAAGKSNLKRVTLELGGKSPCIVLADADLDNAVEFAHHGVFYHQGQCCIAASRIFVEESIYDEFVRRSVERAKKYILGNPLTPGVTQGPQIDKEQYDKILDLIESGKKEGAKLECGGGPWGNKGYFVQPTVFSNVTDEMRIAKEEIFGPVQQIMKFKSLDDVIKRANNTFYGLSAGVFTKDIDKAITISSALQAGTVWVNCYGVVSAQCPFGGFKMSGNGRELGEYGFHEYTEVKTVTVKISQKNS

Potency, inactive:
COc1ccc(-c2[nH]ncc2CN(Cc2nccn2C)C(C)C)cc1F, COc1ccc(CC/C(=N\O)C2(O)CCCCC2)cc1, O=C(CSc1nc2ccccc2s1)NNC(=O)Nc1ccc(Cl)c(Cl)c1, CC(C)(C)CC(=O)Nc1nnc(C(F)(F)F)s1, CCOC(=O)N1CCN(C(=O)c2c(N)no[n+]2[O-])CC1, COC(=O)c1ccc(C(=O)Nc2cc(Cl)ccc2Cl)cc1NC(=O)c1ccc(N(C)C)cc1, Cn1cc(Cl)c(-c2n[nH]c(=S)n2-c2ccccc2)n1, Cc1nnc(SCC(=O)Nc2ccccc2)[nH]c1=O, CNc1nc(OCC(F)(F)F)nc(N2CCOCC2)n1

Potency, inconclusive:
COc1ccc(CC(=O)N2CC3(C)CC2CC(C)(C)C3)cc1 (stereo not given) 11.2 µM [inhibitor, partial curve], COCCNC(=O)/C(C#N)=C/c1nc(N(C)C)n(-c2ccc(F)cc2)c1Cl 44.7 µM [inhibitor, single point], Cc1ccn(CCC(=O)N2CCCC(CCC(=O)N3CCN(c4ccccn4)CC3)C2)n1 (stereo not given) 39.8 µM [inhibitor, single point], CC1CCCCN1C(=O)Cn1cc(C(=O)c2ccco2)c2ccccc21 (stereo not given) 37.7 µM [inhibitor, single point], COc1ccccc1NC(=O)c1ccc(-c2ccc(Br)cc2)o1 28.2 µM [inhibitor, partial curve], O=c1c2ccccc2c(-c2ccc(Br)cc2)nn1Cc1ccccc1 39.8 µM [inhibitor, partial curve], COc1cc(CNCc2ccccn2)ccc1OCC(N)=O 15.8 µM [inhibitor, partial curve], COc1ccc(/C=C/C(=O)NC(=S)NCC2CCCO2)cc1 (stereo not given) 14.1 µM [inhibitor, partial curve], Cc1[nH]n(-c2ccccc2)c(=O)c1C(c1cccc([N+](=O)[O-])c1)c1c(C)[nH]n(-c2ccccc2)c1=O 25.1 µM [inhibitor, partial curve], CCOC(=O)C1=CN(CC2CCCO2)C=C(C(=O)OCC)C1c1ccccc1C(F)(F)F (stereo not given) 23.8 µM [inhibitor, partial curve], CCOC(=O)c1cnc(SC)nc1Sc1ccccc1 20 µM [inhibitor, single point], COc1ccc(NC(=O)N2CCCC3(CCN(C(=O)c4ccc(OC)cc4)CC3)C2)cc1 31.6 µM [inhibitor, single point], CCOC(=O)CN1C(=O)S/C(=C/c2ccc3c(c2)n(C)c(=O)n3C)C1=O 15.8 µM [inhibitor, partial curve], CCN1C(=O)c2cccc3c(NS(=O)(=O)c4ccc(NC(C)=O)cc4)ccc1c23 15.8 µM [inhibitor, partial curve], S=c1nc(-c2ccccc2)[nH]n1-c1ccccc1 31.6 µM [inhibitor, partial curve], CC(NC(=O)c1ccccc1Cl)C1COc2ccccc2O1 (stereo not given) 39.8 µM [inhibitor, single point], COc1ccc(-c2cn(-c3ccc(C)cc3C)c(=O)[nH]2)cc1OC 39.8 µM [inhibitor, single point], CSC1=C(C#N)C(c2ccccc2Cl)C2=C(N1)c1ccccc1C2=O (stereo not given) 35.5 µM [inhibitor, single point], CCOC(=O)C1(C(C)(C)CC)CC(CSc2nc3ccccc3[nH]2)OC1=O (stereo not given) 39.8 µM [inhibitor, single point], C/C(=N\NC(=O)c1cc(-c2ccco2)nc2ccccc12)c1cccnc1 28.2 µM [inhibitor, partial curve], COCCCNC(=O)Cn1cc(C(=O)c2cccs2)c2ccccc21 35.5 µM [inhibitor, single point], COCCn1c(SCC(=O)c2cccc(OC)c2)nnc1-c1ccco1 44.7 µM [inhibitor, single point], C=Cc1ccc2c(c1)N(C)C(=C)S2 7.08 µM [inhibitor, partial curve], Cc1ccc2cc3c(NC(=O)C4CCCO4)nn(CC(C)C)c3nc2c1 (stereo not given) 20 µM [inhibitor, partial curve], CCOC(=O)C1CCCN(c2ncnc3c2cnn3-c2ccc(OC)cc2)C1 (stereo not given) 39.8 µM [inhibitor, partial curve], CCC(C)NC(=O)CNC(=S)N(Cc1ccccc1)Cc1cccnc1 (stereo not given) 15.8 µM [inhibitor, partial curve], COCCN1C=C(C(=O)OC)C(c2cc(Br)c(OC)c(OC)c2)C(C(=O)OC)=C1 31.6 µM [inhibitor, partial curve], O=C(CCNc1ccccc1)c1cccc([N+](=O)[O-])c1 22.4 µM [inhibitor, partial curve], Cc1ncc(CO)c(/C=N/NC(=S)Nc2ccc(F)cc2)c1O 35.5 µM [inhibitor, single point]

Potency, active:
CCCN1C(=O)c2ccc(C(=O)NCc3ccco3)cc2C1=O 6.31 µM, O=C(CSc1ccc(-c2ccco2)nn1)NCc1ccc2c(c1)OCO2 3.55 µM, Cc1nnc(SCC(=O)N2c3ccccc3CC2C)[nH]c1=O (stereo not given) 11.2 µM, O=C(c1ccccc1)N(Cc1nc2ccccc2c(=O)[nH]1)C1CCCCC1 3.55 µM, COC(=O)CN1C(=O)C(O)(CC(=O)c2ccc(Br)cc2)c2ccccc21 (stereo not given) 0.355 µM, Cc1ccccc1NS(=O)(=O)c1cc(C(=O)Nc2cccc([N+](=O)[O-])c2)ccc1C 22.4 µM, CN(/C(=N\S(=O)(=O)c1ccccc1)C(F)(F)F)c1ccccc1 28.2 µM
